Data taken from article PMC6323126.
Results are given in words; binding and its absence hold for the method and conditions named. In cells and extracts the contact can be indirect. Some entries that bind do so weakly or less than the wild type. Sequences can lack the tags named with a protein.

Experiments:
Assay in all cases: co-IP; HEK293FT cells transfected with tagged plasmids, lysed 24 h later in RIPA buffer; immunoprecipitation with indicated antibodies and Protein A/G beads; immunoblot
[1] = target: T1, Flag-tagged SLMAP (wildtype, in cells) (human) (UniProt Q14BN4)
T1 sequence: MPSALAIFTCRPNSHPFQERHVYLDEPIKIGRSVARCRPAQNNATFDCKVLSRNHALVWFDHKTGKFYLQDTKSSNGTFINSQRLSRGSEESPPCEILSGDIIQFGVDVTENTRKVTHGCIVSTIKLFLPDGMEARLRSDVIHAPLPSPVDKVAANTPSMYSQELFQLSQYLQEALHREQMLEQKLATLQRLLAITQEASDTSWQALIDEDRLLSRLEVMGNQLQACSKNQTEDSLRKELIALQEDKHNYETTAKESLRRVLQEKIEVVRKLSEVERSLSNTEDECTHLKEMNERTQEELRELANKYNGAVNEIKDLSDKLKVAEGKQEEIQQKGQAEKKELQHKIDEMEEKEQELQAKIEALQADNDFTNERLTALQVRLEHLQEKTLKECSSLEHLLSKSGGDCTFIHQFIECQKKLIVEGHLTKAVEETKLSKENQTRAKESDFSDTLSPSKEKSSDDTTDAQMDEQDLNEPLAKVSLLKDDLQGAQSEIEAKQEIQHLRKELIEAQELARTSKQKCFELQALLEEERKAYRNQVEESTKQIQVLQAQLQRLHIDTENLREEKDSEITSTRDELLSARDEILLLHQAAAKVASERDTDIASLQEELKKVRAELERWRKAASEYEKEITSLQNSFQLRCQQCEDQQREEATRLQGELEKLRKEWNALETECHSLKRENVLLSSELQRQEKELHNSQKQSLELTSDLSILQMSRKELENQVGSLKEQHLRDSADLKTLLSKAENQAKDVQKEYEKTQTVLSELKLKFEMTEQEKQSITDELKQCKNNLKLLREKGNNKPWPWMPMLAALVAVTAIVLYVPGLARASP

[2] = target: T2, Flag-tagged SLMAP Δ161–230 (human) (UniProt Q14BN4)
T2 sequence: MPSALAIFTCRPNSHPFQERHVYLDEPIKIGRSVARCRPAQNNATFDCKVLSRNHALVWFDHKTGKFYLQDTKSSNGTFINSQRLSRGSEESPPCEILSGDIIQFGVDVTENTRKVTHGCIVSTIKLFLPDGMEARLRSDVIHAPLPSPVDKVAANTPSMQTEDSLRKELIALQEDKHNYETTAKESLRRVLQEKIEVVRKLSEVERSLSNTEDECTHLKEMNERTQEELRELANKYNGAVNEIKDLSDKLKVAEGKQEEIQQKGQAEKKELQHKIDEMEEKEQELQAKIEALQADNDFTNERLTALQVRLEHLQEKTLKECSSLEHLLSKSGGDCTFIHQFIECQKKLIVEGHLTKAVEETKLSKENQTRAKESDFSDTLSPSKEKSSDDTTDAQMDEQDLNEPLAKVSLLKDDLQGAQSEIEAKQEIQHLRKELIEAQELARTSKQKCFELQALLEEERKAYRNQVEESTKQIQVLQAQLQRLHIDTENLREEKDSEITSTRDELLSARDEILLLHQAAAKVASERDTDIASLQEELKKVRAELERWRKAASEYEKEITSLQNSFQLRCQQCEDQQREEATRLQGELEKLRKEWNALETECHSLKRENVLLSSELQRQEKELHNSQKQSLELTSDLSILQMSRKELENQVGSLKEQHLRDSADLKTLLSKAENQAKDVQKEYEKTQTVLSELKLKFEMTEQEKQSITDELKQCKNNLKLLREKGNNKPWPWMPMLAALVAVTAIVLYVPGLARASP

[3] = target: T3, Flag-tagged STRN3 (wildtype, in cells) (human) (UniProt Q13033)
T3 sequence: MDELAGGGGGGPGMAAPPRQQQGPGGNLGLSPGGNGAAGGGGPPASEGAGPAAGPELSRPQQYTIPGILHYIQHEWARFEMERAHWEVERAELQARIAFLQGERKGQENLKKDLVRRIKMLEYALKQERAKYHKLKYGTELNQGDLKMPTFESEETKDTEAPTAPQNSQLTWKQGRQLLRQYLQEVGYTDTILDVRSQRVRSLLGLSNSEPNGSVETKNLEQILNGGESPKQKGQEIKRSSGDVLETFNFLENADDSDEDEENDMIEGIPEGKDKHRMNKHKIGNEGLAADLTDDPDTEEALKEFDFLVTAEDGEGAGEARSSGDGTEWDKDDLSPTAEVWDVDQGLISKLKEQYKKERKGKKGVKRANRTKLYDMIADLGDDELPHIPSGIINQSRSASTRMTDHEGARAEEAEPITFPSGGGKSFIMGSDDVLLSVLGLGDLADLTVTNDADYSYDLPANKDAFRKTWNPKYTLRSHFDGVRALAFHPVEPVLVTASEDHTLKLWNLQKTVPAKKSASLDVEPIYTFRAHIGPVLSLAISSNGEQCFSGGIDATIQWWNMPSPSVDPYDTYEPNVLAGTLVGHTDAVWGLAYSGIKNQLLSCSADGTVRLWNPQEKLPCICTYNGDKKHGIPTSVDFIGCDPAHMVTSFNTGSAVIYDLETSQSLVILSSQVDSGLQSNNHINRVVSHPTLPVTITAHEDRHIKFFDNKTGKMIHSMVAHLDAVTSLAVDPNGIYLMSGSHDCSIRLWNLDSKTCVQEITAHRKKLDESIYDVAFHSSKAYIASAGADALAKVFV

B1: HA-tagged SIKE1 (wildtype, in cells) (protein, UniProt Q9BRV8 1-207)
chain: MSCTIEKILTDAKTLLERLREHDAAAESLVDQSAALHRRVAAMREAGTALPDQYQEDASDMKDMSKYKPHILLSQENTQIRDLQQENRELWISLEEHQDALELIMSKYRKQMLQLMVAKKAVDAEPVLKAHQSHSAEIESQIDRICEMGEVMRKAVQVDDDQFCKIQEKLAQLELENKELRELLSISSESLQARKENSMDTASQAIK
For B1, the binding [1] was “binds”, the binding [2] was “no binding” and the binding [3] was “binds”.
